“And” between values parts separate entries of the source, which are not always exact repeats. Identical values can stand only once. Some of the results follow. These are further read-outs of the screen, such as a control signal, another cell line or another target. No call is given for them.
How the values were obtained:
Experiment in all cases: Primary Screen for Target Class Profiling of Small Molecule Inhibitors of Methyltransferases
[1] = biological target: Glycine N-methyltransferase (Homo sapiens) (UniProt Q14749); conditions: purified enzyme, MTase-Glo SAH luminescence; measured here: GNMT inhibition; at 40 µM; stronger effect = lower value
Procedure, shortened: (§1)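 Each enzyme was reacted with SAM and its substrate, with compounds tested once at 40 uM; SAH formed was read by MTase-Glo luminescence.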

[2] = biological target: Guanidinoacetate N-methyltransferase (Homo sapiens) (UniProt Q14353); conditions: purified enzyme, MTase-Glo SAH luminescence; measured here: GAMT inhibition; at 40 µM; stronger effect = lower value
Procedure, shortened: as §1

[3] = biological target: Histamine N-methyltransferase (Homo sapiens) (UniProt P50135); conditions: purified enzyme, MTase-Glo SAH luminescence; measured here: HNMT inhibition; at 40 µM; stronger effect = lower value
Procedure, shortened: as §1

[4] = biological target: Nicotinamide N-methyltransferase (Homo sapiens) (UniProt P40261); conditions: purified enzyme, MTase-Glo SAH luminescence; measured here: NNMT inhibition; at 40 µM; stronger effect = lower value
Procedure, shortened: as §1

[5] = biological target: Phenylethanolamine N-methyltransferase (Homo sapiens) (UniProt P11086); conditions: purified enzyme, MTase-Glo SAH luminescence; measured here: PNMT inhibition; at 40 µM; stronger effect = lower value
Procedure, shortened: as §1
% is scaled to controls: 0 for no effect and ±100 for the full control effect.

| Compound | activity change, negative = inhibition [1] | activity change, negative = inhibition [2] | activity change, negative = inhibition [3] | activity change, negative = inhibition [4] | activity change, negative = inhibition [5] |
| --- | --- | --- | --- | --- | --- |
| Cc1c(Cl)cccc1N1C(=O)c2cc3ccccc3n2CC1(C)C(=O)NCCC(C)C (stereo not given) | 8.28% | 0.319% | 7.59% | 9.29% | 3.48% |
| Cc1ccccc1CNC(=O)Cn1ccc2cc(S(=O)(=O)N3CCC(C)CC3)ccc21 | 2.92% | 0% | -3.68% | 1.94% | 1.67% |
| c1ccc(CN(Cc2nc(-c3ccccn3)no2)CC2CC2)cc1 | -1.15% | 3.59% | 0.891% | -5.15% | 10.9% |
| CCC(C)NC(=O)CCc1nnc2n(Cc3ccc(Cl)cc3)c(=O)c3ccccc3n12 (stereo not given) | -10% | 3.22% | 1.02% | -0.223% | -6.46% |
| CN(C)CCCC1(c2ccc(F)cc2)OCc2cc(C#N)ccc21 (stereo not given) | -4.17% and 2.67% | 11.7% and 14.1% | -68% and -59% | -9.81% and -3.38% | 5.17% and 6.36% |
| Nn1nnc2ccccc21 | -5.67% | 4.96% | -1.45% | -6.6% | 6.66% |
| CCN(CCCN1C(=O)c2cc3occc3n2CC1(C)C(=O)NC1CCCCC1)c1cccc(C)c1 (stereo not given) | -0.083% | 3.6% | -0.127% | 0.852% | -0.072% |
| O=C(NCc1ccncc1)C(=O)NCC(c1cccnc1)N1CCOCC1 (stereo not given) | -5.46% | -1.02% | 7.85% | -13.1% | -0.714% |
| C/C=C1/C[N+](C)([O-])C2Cc3c([nH]c4ccccc34)C(=O)CC1C2C(=O)OC (stereo not given) | -4.77% | -2.98% | 5.47% | -18% | 2.35% |
| CN(C)C(=O)c1nc(-c2cccc(C(F)(F)F)c2)c2cnccn12 | -5.33% | -4.56% | -3.05% | -5.14% | -1.81% |
| COc1ccc(OC)c(CCNC(=O)Cn2ccc3cc(S(=O)(=O)N4CCCCC4)ccc32)c1 | -5.36% | -4.04% | -10.4% | -12.2% | -21.6% |
| O=C(c1ccc(Cl)s1)N1CCC2(COc3ncccc3S(=O)(=O)N2)C1 (stereo not given) | -8.82% | -8.86% | -3.13% | -16.3% | -10.9% |
| CCCC(CCC)C(=O)O | 7.86% | 14.3% | 12.4% | -5.04% | -0.25% |
| COC(=O)N(C)Cc1cccc(C(F)(F)F)c1 | -4.59% | -4.95% | -1.76% | -6.61% | -6.37% |
| CCC(C)NC(=O)c1ccc2c(=O)n(C)c3nnc(SCC(=O)c4ccc(OC)cc4)n3c2c1 (stereo not given) | 5.58% | 0.257% | 5.79% | 8.7% | 5.98% |
| COc1ccc(-c2cc3n(n2)CC(C)(C(=O)NC2CCCCC2)N(Cc2cccc(F)c2)C3=O)cc1 (stereo not given) | -2.81% | 0.938% | -0.795% | -0.838% | -7.06% |
| Cc1ccccc1NC(=O)N1Cc2c(sc3c2CCCC3)-n2cccc2C1c1cc(F)cc(F)c1 (stereo not given) | -5.87% | 1.83% | -2.86% | -7.09% | -2.34% |
| O=C(NCc1ccncc1)c1nc2c(o1)CCN(CCCc1ccccc1)CC2 | -12.6% | -6.44% | -10.9% | -10.4% | -45.9% |
| CC(C)(C)C(=O)Nc1nc2c(s1)C[C@@H]1[C@](C)(CO)[C@H](O)CC[C@@]1(C)[C@@H]2CC(=O)O | -3.6% | -3.04% | 0.307% | -3.29% | 3.12% |
| O=C(c1ccc(OCCN2CCCCC2)cc1)c1c(-c2ccc(O)cc2)sc2cc(O)ccc12 | -3.19% | 8.15% | -33% | -11.8% | -3.84% |
| O=C1c2ccccc2-c2n[nH]c3cccc1c23 | -36.7% | -1.16% | -3.49% | -15.4% | -6.37% |
| COc1cc(Cl)ccc1C(=O)N1CC[C@@H]2CN(S(C)(=O)=O)[C@@H]2C1 | 1.58% | -6.37% | 2.37% | 0.472% | 1.02% |
| COc1ccc(NC(=O)Cn2nc3n(Cc4ccccc4)c(=O)c4ccccc4n3c2=O)cc1OC | 3.71% | 0% | 8.84% | -0.964% | 4.46% |
| C[C@@]1(O)CCN(C2CCN(c3ccc(F)cc3)CC2)C[C@@H]1O | -5.13% | -6.09% | 0.125% | -5% | -1.02% |
| CC1(C(=O)NC2CCCC2)Cn2c(nc3ccccc32)C(=O)N1CCCc1ccccc1 (stereo not given) | 3.57% | 0% | 6.13% | 9.84% | 1.72% |
| CCCN1C(=O)c2cc(C(=O)NC3CCCC3)nn2CC1(C)C(=O)NC1CCCC1 (stereo not given) | 7.23% | 0% | 5.46% | 7.62% | 4.14% |
| CCOc1ccc(CN2C(=O)c3cc4ccccc4n3CC2(C)C(=O)NC2CCCCC2)cc1 (stereo not given) | -3.32% | 1.86% | 1.01% | -1.08% | -4.51% |
| COc1ccc2nc(NC(=O)Cn3c(=O)oc4cc(S(=O)(=O)NC(C)C)ccc43)sc2c1 | -3.87% | 5.3% | 0.126% | -4.87% | -28.1% |
| COC(=O)c1ncn2c1C(=O)N(Cc1cccs1)C(C)(C(=O)NC1CCCCC1)C2 (stereo not given) | 6.07% | 5.49% | 9.79% | 9.25% | 5.02% |
| CCCC1c2ccc(C)n2CCN1C(=O)Nc1cc(C)ccc1C (stereo not given) | -5.94% | 2.44% | -10.8% | 6.39% | -3.48% |

— PubChem BioAssay AID1745853 (National Center for Advancing Translational Sciences (NCATS), 2022)
